Measured values: PubChem BioAssay AID624417 (National Center for Advancing Translational Sciences (NCATS), 2012)
Screen size: about 410,000 compounds; about 6,400 (1.6%) were called active. The inconclusive results got no clear call from the source; some entries with a clear call stand among them for comparison. Calls follow the shape of the dose curve; as a rule, active = well fitted inhibition curve with a large enough effect; inconclusive = small, poorly fitted or top-dose-only effect; inactive = no such curve, though single readings can be large or run the other way. Potencies of inconclusive entries are left out as doubtful fits.

target: Glucagon-like peptide 1 receptor (Homo sapiens) (UniProt P43220); assay: qHTS of GLP-1 Receptor Inverse Agonists (Inhibition Mode); conditions: HEK293 GLP-1R CRE-luciferase, luminescence, 24 h, GLP-1R form is constitutively active; series mostly up to 38.3 µM; also: nearly all actives have a fitted effect of over 55% in size
Outline: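 HEK293 cells stably co-expressing constitutively active GLP-1R and a cAMP-responsive luciferase reporter were seeded in DMEM with 10% Nu serum, given compounds after 12 h, and incubated 24 h at 37 deg C. Luminescence was then read.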
Potency is read from the fitted curve at half-maximal effect; tags tell the direction and shape of the fitted curve.

Chain of UniProt P43220 (P43220 whole entry, looked up): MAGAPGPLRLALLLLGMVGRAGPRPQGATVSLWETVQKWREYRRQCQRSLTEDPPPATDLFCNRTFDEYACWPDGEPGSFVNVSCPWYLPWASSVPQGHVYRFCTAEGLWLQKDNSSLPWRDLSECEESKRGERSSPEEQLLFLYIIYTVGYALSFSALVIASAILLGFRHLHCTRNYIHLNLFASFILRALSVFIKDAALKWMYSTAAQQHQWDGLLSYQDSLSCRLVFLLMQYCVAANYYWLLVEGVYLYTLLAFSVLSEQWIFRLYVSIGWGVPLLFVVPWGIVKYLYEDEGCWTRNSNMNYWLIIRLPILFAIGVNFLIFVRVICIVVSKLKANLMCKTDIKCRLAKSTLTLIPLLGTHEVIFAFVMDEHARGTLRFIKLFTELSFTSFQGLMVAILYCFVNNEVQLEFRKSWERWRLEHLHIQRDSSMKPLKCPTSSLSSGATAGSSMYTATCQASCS

Row | Structure (SMILES) | Potency
1 | CN(C(=O)c1ccco1)c1nc(-c2ccc(F)cc2)cs1 | inactive
2 | CCOC(=O)c1c(C)nc2c(c1-c1ccc(OC)cc1)C(=O)CC(C)(C)C2 | inconclusive [inhibitor, partial curve]
3 | O=C(COc1ccc([N+](=O)[O-])cc1)NNC(=O)c1cccs1 | inconclusive [inhibitor, single point]
4 | CC1(C)CC(=O)C2=C(C1)OC(N)=C(C#N)C2c1ccc(OC(=O)N2CCOCC2)cc1 (stereo not drawn) | inactive
5 | Cn1c(=O)c([N+](=O)[O-])c(N2CCN(Cc3ccc4c(c3)OCO4)CC2)c2ccccc21 | inconclusive [inhibitor, partial curve]
6 | CNC[C@H](Cc1ccccc1)NC[C@@H](Cc1cccc2ccccc12)NCCc1ccc(C)cc1 | inconclusive [inhibitor, full curve, poor fit]
7 | Cc1ccc(O)c(N=CC2=C(O)c3ccccc3C2=O)c1 | inconclusive [inhibitor, single point]
8 | CCOC(=O)c1sc2ccccc2c1S(=O)(=O)N1CCN(c2ccccc2F)CC1 | inconclusive [inhibitor, single point]
9 | O=S(=O)(c1ccc2c(c1)OCCO2)N1CCC(n2nnc3cc(C(F)(F)F)ccc32)CC1 | inconclusive [inhibitor, single point]
10 | CC1=C(c2cccc(Cl)c2)S(=O)(=O)NC1=NCc1ccccc1C | inactive
11 | O=C(NCC(c1ccco1)N1CCN(c2ccccc2)CC1)c1ccco1 (stereo not drawn) | inconclusive [inhibitor, full curve]
12 | COc1ccc(C)cc1NC(=O)CN1C(=O)CSc2ccc(S(=O)(=O)N3CCCC3)cc21 | inconclusive [inhibitor, single point]
13 | CC(C)(C)c1ccc(OCc2cnc(Cl)s2)cc1 | inconclusive [inhibitor, partial curve, poor fit]
14 | CCC(=O)N1CCc2cc(S(=O)(=O)N3CCN(c4ccccc4F)CC3)ccc21 | inactive
15 | O=C(c1ccc(F)cc1)C1CCN(Cc2ccccc2F)CC1 | inconclusive [inhibitor, partial curve, poor fit]
16 | Nc1cc[n+](CC(=O)c2ccc3c(c2)OCCO3)cc1 | inconclusive [inhibitor, single point]
17 | O=C(Nc1cccc(C(F)(F)F)c1)C1(c2ccccc2)CC1 | inconclusive [inhibitor, partial curve, poor fit]
18 | O=C(NNC(=O)c1cccnc1SCc1cccc([N+](=O)[O-])c1)c1ccccn1 | inconclusive [inhibitor, single point]
